Reference: PubChem BioAssay AID1030 (National Center for Advancing Translational Sciences (NCATS), 2008)
Where “and” joins values, the source holds several entries; their conditions need not be identical. Identical values can stand only once. Among all 220,000 compounds or so, about 16,000 (7.3%) were called active. Inconclusive results, whose numbers are uncertain, are shown with a selection of clear calls. Calls follow the shape of the dose curve; as a rule, active = well fitted inhibition curve with a large enough effect (not every such curve was filed as active); inconclusive = small, poorly fitted or top-dose-only effect, or another doubt; inactive = no such curve, though single readings can be large or run the other way. Potencies of inconclusive entries are left out as doubtful fits. More than one record can exist for a structure, and the calls need not agree.
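For activity, negative = inhibition in this document: plate controls were no enzyme wells and a reference inhibitor.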
Potency is read from the fitted curve at half-maximal effect; tags tell the direction and shape of the fitted curve.

The molecules below were run against Aldehyde dehydrogenase 1A1 (Homo sapiens) (UniProt P00352) (assay: qHTS Assay for Inhibitors of Aldehyde Dehydrogenase 1 (ALDH1A1)). Conditions: Purified ALDH1A1, NADH fluorescence, propionaldehyde substrate; series mostly up to 75.3 µM; activity, negative = inhibition: at the top concentration.
Sequence of UniProt P00352 (P00352 whole entry, looked up): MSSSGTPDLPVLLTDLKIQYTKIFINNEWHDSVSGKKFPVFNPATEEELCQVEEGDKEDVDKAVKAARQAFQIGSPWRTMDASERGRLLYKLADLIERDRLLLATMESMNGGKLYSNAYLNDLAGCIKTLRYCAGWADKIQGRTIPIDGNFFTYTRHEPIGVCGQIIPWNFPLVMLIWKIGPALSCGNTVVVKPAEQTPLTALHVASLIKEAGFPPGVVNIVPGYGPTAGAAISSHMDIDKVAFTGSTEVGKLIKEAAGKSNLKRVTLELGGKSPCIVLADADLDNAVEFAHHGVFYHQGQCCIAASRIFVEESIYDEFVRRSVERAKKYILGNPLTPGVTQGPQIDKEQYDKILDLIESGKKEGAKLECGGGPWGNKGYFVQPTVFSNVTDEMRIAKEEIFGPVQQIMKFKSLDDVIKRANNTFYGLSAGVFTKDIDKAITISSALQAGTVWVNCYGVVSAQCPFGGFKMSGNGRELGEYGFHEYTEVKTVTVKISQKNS
With CCCc1cc2c(n1Cc1cccc(Cl)c1)C(C)C1CN(C(=O)c3ccccc3)C(C)(C(=O)OC)C21 (centres undefined) the Potency was inconclusive [inhibitor, partial curve].
In the case of Cn1c(=O)cc(OCCCC(=O)N2CCC3(CC2)OCCO3)c2ccccc21, the Potency is reported as inconclusive [inhibitor, partial curve].
For N#C/C(=C\c1ccc(N2CCCCC2)c([N+](=O)[O-])c1)c1nn(-c2ccccc2)c(N)c1C#N, the Potency was inconclusive [inhibitor, partial curve].
In the case of N#CC(c1ccc(Cl)cc1)N1CCOCC1 (centres undefined), the “activity, negative = inhibition” value is reported as inactive: 21.9%.
For COc1cccc(CN2CCCCC2c2cccnc2)c1 (centres undefined), the Potency was active: 31.6 µM.
With Cc1cc(C(=O)CN2C(=O)c3ccccc3C2=O)c(C)n1C1CC1 the Potency was inconclusive [inhibitor, single point].
With c1ccc2sc(SNC3CCCCC3)nc2c1 the Potency was active: 0.794 µM.
CCCCOC(=O)c1ccccc1N was tested, and the Potency was inconclusive [inhibitor, single point].
With COC(=O)c1[nH]c2ccc(C)cc2c1NC(=O)Oc1ccccc1 the Potency was inconclusive [inhibitor, single point].
In the case of NCC(N)C(=O)c1ccccc1 (centres undefined), the Potency is reported as inconclusive [inhibitor, single point].
In the case of NC(=O)c1ncn(C2OC(CO)C(O)C2O)n1 (centres undefined), the “activity, negative = inhibition” value is reported as inactive: -9.78%.
With O=C1NC(=O)C(=Cc2coc3ccc(O)cc3c2=O)C(=O)N1 the Potency was active: 3.55 µM.
CSC(=Nc1ccccc1)c1c(O)n(C)c(=O)n(C)c1=O was tested, and the Potency was inconclusive [inhibitor, single point].
With Cc1ccc(Cn2nnnc2CN2CCC(n3nnc4ccccc43)CC2)cc1 the Potency was inconclusive [inhibitor, single point].
For NCC[Se][Se]CCN, the Potency was active: 3.55 µM.
With Cc1nc2sccc2c(=O)n1-c1ccccc1Cl the Potency was inconclusive [inhibitor, partial curve].
CC(=O)Nc1ccc2c(c1)CC1(C(=O)N(C)C(=O)N(C)C1=O)C1CCCN21 (centres undefined) was tested, and the Potency was inconclusive [inhibitor, single point].
For CC1CCN(S(=O)(=O)c2ccc(NN=C(C#N)C#N)cc2)CC1, the Potency was inconclusive [inhibitor, single point].
For O=C1CSC2N1CCNC21CCCCC1 (centres undefined), the Potency was inconclusive [inhibitor, single point].
For Cc1cc(/C=C2/C(=O)NC(=O)N(C)C2=O)c(C)n1-c1ccccc1, the “activity, negative = inhibition” value was inactive: 1.97%.
c1csc(CN2CC[C@@]3(CCCNC3)C2)n1 was tested, and the Potency was active: 22.4 µM.
With O=C1C(Cl)=C(Cl)C(=O)C(Cl)=C1Cl the Potency was active: 1 µM and active: 398 nM.
With CCOc1cc(-c2nc3c(C)cccn3c2NCC2CCCO2)ccc1O (centres undefined) the Potency was inconclusive [inhibitor, partial curve].
For Nc1ccccc1C(=O)OCCc1ccccc1, the Potency was inconclusive [inhibitor, partial curve].
O=C(c1ccccc1F)c1cn(CC(=O)N2CCCC2)c2ccccc12 was tested, and the Potency was inconclusive [inhibitor, single point].
In the case of CN1CC[C@@]2(CCCN(C(=O)c3ccco3)C2)C1, the “activity, negative = inhibition” value is reported as inactive: -15.5%.
In the case of COc1ccc(C(=O)N2CCOCC2)cc1S(=O)(=O)N1CCC(C)CC1, the “activity, negative = inhibition” value is reported as inactive: 5.7%.
For CC1(C)CC(=O)C(C2(O)C(=O)NC(=O)NC2=O)=C(O)C1, the “activity, negative = inhibition” value was inactive: 8.08%.
In the case of c1ccc2c(CCNC3CCCCC3)c[nH]c2c1, the Potency is reported as inconclusive [inhibitor, single point].
CCc1cccc(NC(=O)Cn2c(=O)oc3cc(S(=O)(=O)N4CCOCC4)ccc32)c1 was tested, and the Potency was inconclusive [inhibitor, partial curve].
With Clc1ccc2c(c1)C(c1ccccc1Cl)=NCc1nnc(N3CCN(CCOc4ccccc4)CC3)n1-2 the Potency was active: 10 µM.
In the case of Cn1cc(NC(=O)CCl)cn1, the Potency is reported as active: 17.8 µM.
For CCC(=O)O[C@H]1CC[C@H]2[C@@H]3CCC4=CC(=O)CC[C@]4(C)[C@H]3CC[C@]12C, the “activity, negative = inhibition” value was inactive: -9.18% [at 20.9 µM].
For Cc1ccc(N)cc1[N+](=O)[O-], the Potency was inconclusive [inhibitor, single point].
O=c1cc(-c2ccc(O)c(O)c2)oc2cc(O)cc(O)c12 was tested, and the Potency was active: 8.91 µM and active: 20 µM.
COc1cccc(Oc2c(C)oc3cc(OC(=O)N(C)C)ccc3c2=O)c1 was tested, and the Potency was active: 22.4 µM.
In the case of N#CC(C#N)=NNc1ccc(OC(F)(F)F)cc1, the Potency is reported as active: 2.82 µM.
In the case of COC(=O)C1=CO[C@@H](C)[C@@H]2CN3CC[C@]4(C(=O)Nc5c4ccc(OC)c5OC)[C@H]3C[C@H]12, the “activity, negative = inhibition” value is reported as inactive: -3.32%.
In the case of O=[N+]([O-])c1cc(S(=O)(=O)/N=C(/c2ccccc2)N2CCOCC2)ccc1Cl, the Potency is reported as inconclusive [inhibitor, single point].
With NC(=S)Nc1ccccc1 the Potency was “inactive”.
With COc1cc2c(cc1OC)-c1c(OC)c(OC)cc3c1C(C2)N(C)CC3 (centres undefined) the Potency was inconclusive [inhibitor, single point].
In the case of CCOC(=O)c1c(N)n(Cc2ccc(OC)cc2)c2nc3ccccc3nc12, the Potency is reported as inconclusive [inhibitor, partial curve].
With COc1ccc(C(C)=O)cc1COC(=O)c1ccc2ccccc2n1 the Potency was active: 14.1 µM.
With CC([C@H](O)c1ccccc1)N(C)C (some centres undefined) the Potency was active: 20 µM.
With CCOP1(=S)Oc2cc3c(cc2C(C(=O)OC)(C(F)(F)F)O1)OCO3 (centres undefined) the Potency was inconclusive [inhibitor, single point].
With CC(C)[C@@H](C)/C=C\[C@@H](C)[C@@H]1CC[C@H]2C3=CC=C4C[C@@H](O)CC[C@]4(C)[C@H]3CC[C@]21C the activity, negative = inhibition was inactive: -8.17% [at 13.5 µM].
CN(C)c1ccc(N)cc1 was tested, and the Potency was active: 14.1 µM.
With C[C@@]12CC[C@H](O)C[C@@H]1CC[C@H]1[C@@H]2C[C@@H](O)[C@]2(C)[C@@H](C3=CC(=O)OC3)CC[C@]12O the “activity, negative = inhibition” value was inactive: -3.24% [at 20.9 µM].
CN(C)c1ccc(C(=O)c2ccc(N(C)C)cc2)cc1 was tested, and the Potency was active: 28.2 µM.
In the case of Cc1ccccc1C1=NCC(=O)N(CC(=O)N2CCCCC2)c2sc(C)c(C)c21, the Potency is reported as inconclusive [inhibitor, single point].
COC(=O)CSc1nc2sc3c(c2c(=O)n1C1CCCCC1)CCN(C)C3 was tested, and the Potency was inconclusive [inhibitor, partial curve].
In the case of O=C1C2(Cl)C3(Cl)C4(Cl)C(Cl)(Cl)C5(Cl)C3(Cl)C1(Cl)C5(Cl)C24Cl (centres undefined), the “activity, negative = inhibition” value is reported as inactive: 0.669%.
For CCOC(=O)C1=C(N)Oc2cc(C)oc(=O)c2C12C(=O)N1c3c(cccc32)C(C)CC1(C)C (centres undefined), the Potency was inconclusive [inhibitor, full curve].
For CC(=O)Nc1cc(C(=O)N2CCC3(CC2)OCCO3)ccc1Sc1ccc(F)cc1, the Potency was active: 2.99 µM.
With C[C@]12CC[C@@H]3C(=CCc4cc(O)ccc43)[C@@H]1CCC2=O the Potency was active: 0.501 µM.
For CCOc1c(Cl)cc(CNCCc2c[nH]c3ccccc23)cc1OC, the Potency was active: 3.55 µM.
N#C/C=C/C#N was tested, and the Potency was inconclusive [inhibitor, single point].
For O=C1NC(=O)N(Cc2ccccc2)C(=O)/C1=C\C=C\c1ccco1, the Potency was active: 3.16 µM.
With C(=C\c1ccccc1)/CN1CCN(CCOC(c2ccccc2)c2ccccc2)CC1 the “activity, negative = inhibition” value was inactive: -4.92%.
With CCOP(=O)(OCC)c1nc(-c2cccc3ccccc23)oc1N1CCOCC1 the Potency was inconclusive [inhibitor, partial curve].
With CC(O)C(C)OC(=O)[C@@H]1C[C@@H]2c3cccc4c3c(cn4C(C)C)C[C@H]2N(C)C1 (some centres undefined) the Potency was “inactive and active: 1.78 µM”.
COc1ccc(NC(=O)N2CC3(CCN(C(=O)Oc4ccccc4)CC3)C2)cc1 was tested, and the Potency was inconclusive [inhibitor, partial curve].
With CCN(CC)c1ccc(N=Cc2c(O)n(CCC3=CCCCC3)c(=O)[nH]c2=O)cc1 the Potency was inconclusive [inhibitor, full curve].
For COC1=C[C@H]2C3=C([C@H]2C1=O)[C@H](NC(C)=O)CCc1cc(OC)c(OC)c(OC)c13, the “activity, negative = inhibition” value was inactive: 5.36% [at 20.9 µM].
In the case of C/C(CC(c1ccccc1)c1c(O)c2ccccc2oc1=O)=N\NC(N)=S (centres undefined), the Potency is reported as inconclusive [inhibitor, partial curve].
For CC(=O)c1cn(CCCOc2ccccc2)c2ccccc12, the Potency was inconclusive [inhibitor, single point].
With CCOC(=O)Cn1cc(C(=O)c2ccccc2F)c2ccccc21 the Potency was inconclusive [inhibitor, partial curve].
In the case of CCCCn1c(O)c(C(CC)=Nc2cccc(C(=O)O)c2)c(=O)[nH]c1=O, the Potency is reported as inconclusive [inhibitor, partial curve].
CN(C)c1ccc(C=C2C(=O)NC(=O)NC2=O)cc1[N+](=O)[O-] was tested, and the Potency was inconclusive [inhibitor, partial curve].
For CC(C)OP(=O)(OC(C)C)C(Nc1ccccc1)c1cccc2c1OCO2 (centres undefined), the Potency was inconclusive [inhibitor, partial curve, poor fit].
With C/C(=N\N1CCCCCC1)c1c(O)n(C2CCCCC2)c(=O)[nH]c1=O the Potency was inconclusive [inhibitor, partial curve, poor fit].
With CCOP(=O)(OCC)C(NS(=O)(=O)c1ccccc1)C(Cl)(Cl)Cl (centres undefined) the Potency was inconclusive [inhibitor, single point].
With COCCCn1c(-c2ccc(OC)cc2)cc(C(=O)NC2CCCCCCC2)c1C the Potency was inconclusive [inhibitor, single point].
C[N+]1(C)C2CCC1CC(OC(=O)c1c[nH]c3ccccc13)C2 (centres undefined) was tested, and the Potency was active: 22.4 µM.
